Consider 98 variants from a collection of fitness landscapes (doi:10.1016/j.celrep.2020.107928).

B1: Caulobacter ParB omega fusion; a variant is named by its letters at X, in order, B8GW30 (parent)
chain: MESVVVGEPGMSEGRRGLGRGLSALLGEVDAAPAQAPGEQLGGSREAPIEILQRNPDQPRRTFREEDLEDLSNSIREKGVLQPILVRPSPDTAGEYQIVAGERAWRAAQRAGLKTVPIMVRELDDLAVLEIGIIENVQRADLNVLEEALSYKVLMEKFERTQENIAQTIGKSXSHVANXMRLLXLPDEVQSYLVSGELTAXHARAIAAAADPVALAKQIIEGGLSVRETEALARKAPNLSAGKSKGGRPPRVKDTDTQALESDLSSVLGLDVSIDHRGSTGTLTITYATLEQLDDLCNRLTRGI

The full ranking holds about 81,000 sequences; the median of “one-hybrid fitness for binding parS DNA” is about -0.17, and the highest 2% start at about 0.51. The list shows a part of the results. Where only a bound is given, the exact number is not on record here.

In the assay the parent is B1. As to the kind of experiment: one-hybrid fitness for binding parS DNA (scaled: cognate 1, non-cognate 0); higher = stronger binding. Conditions: with parS DNA site. The method in brief: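 On M9-minus-histidine containing 0.1 mM IPTG and 5 mM 3-AT, E. coli USO cells with a HIS3 reporter, site 19 bp from the promoter, grew 48 hours at 37°C to select Caulobacter ParB libraries randomised at four specificity codons. Plasmids from before and after were Illumina-sequenced, with three replicate libraries pooled and variants under 10 reads left out. Fitness is the log change in variant-to-wild-type read ratio, rescaled against cognate and non-cognate.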
As to PVKF, the “one-hybrid fitness for binding parS DNA” value is no more than 0.2.

Consider DGLG, for which the “one-hybrid fitness for binding parS DNA” value was no more than 0.2.

With VIIF, the “one-hybrid fitness for binding parS DNA” value was no more than 0.2.

With NRSY, the “one-hybrid fitness for binding parS DNA” value is no more than 0.2.

For EYDS, the “one-hybrid fitness for binding parS DNA” value is no more than 0.2.

Consider GWLW, for which the “one-hybrid fitness for binding parS DNA” value is no more than 0.2.

For MIRG, the “one-hybrid fitness for binding parS DNA” value was no more than 0.2.

As to VTRA, the “one-hybrid fitness for binding parS DNA” value was no more than 0.2.

With ASRW, the “one-hybrid fitness for binding parS DNA” value is no more than 0.2.

As for IRKE, the “one-hybrid fitness for binding parS DNA” value was no more than 0.2.

For the variant KGQM, the “one-hybrid fitness for binding parS DNA” value was no more than 0.2.

As for NGEC, the “one-hybrid fitness for binding parS DNA” value was no more than 0.2.

As to MSSK, the “one-hybrid fitness for binding parS DNA” value is no more than 0.2.

For LTGI, the “one-hybrid fitness for binding parS DNA” value is no more than 0.2.

Turning to ELIG, the “one-hybrid fitness for binding parS DNA” value is no more than 0.2.

PPNR: the “one-hybrid fitness for binding parS DNA” value was no more than 0.2.

Take AHSC: the “one-hybrid fitness for binding parS DNA” value is no more than 0.2.

Turning to SSAS, the “one-hybrid fitness for binding parS DNA” value was no more than 0.2.

As to QGNV, the “one-hybrid fitness for binding parS DNA” value is no more than 0.2.

On to VVNV, for which the “one-hybrid fitness for binding parS DNA” value is no more than 0.2.

As for SWRE, the “one-hybrid fitness for binding parS DNA” value was no more than 0.2.

Consider AVEY, for which the “one-hybrid fitness for binding parS DNA” value is no more than 0.2.

Turning to LYCD, the “one-hybrid fitness for binding parS DNA” value is no more than 0.2.

As to KNSV, the “one-hybrid fitness for binding parS DNA” value was no more than 0.2.

For the variant KEFG, the “one-hybrid fitness for binding parS DNA” value is no more than 0.2.

Regarding LWPM, the “one-hybrid fitness for binding parS DNA” value was no more than 0.2.

Regarding QKPT, the “one-hybrid fitness for binding parS DNA” value was no more than 0.2.

As for SIKR, the “one-hybrid fitness for binding parS DNA” value is no more than 0.2.

In the case of RATN, the “one-hybrid fitness for binding parS DNA” value was 0.436.

Take ANQC: the “one-hybrid fitness for binding parS DNA” value is no more than 0.2.

Take TQIL: the “one-hybrid fitness for binding parS DNA” value is no more than 0.2.

As to FDPE, the “one-hybrid fitness for binding parS DNA” value is no more than 0.2.

As to HFLG, the “one-hybrid fitness for binding parS DNA” value is no more than 0.2.

As to GPMT, the “one-hybrid fitness for binding parS DNA” value is no more than 0.2.

For the variant QFRT, the “one-hybrid fitness for binding parS DNA” value is no more than 0.2.

With SSGF, the “one-hybrid fitness for binding parS DNA” value was no more than 0.2.

Turning to SITR, the “one-hybrid fitness for binding parS DNA” value is no more than 0.2.

As for KKFS, the “one-hybrid fitness for binding parS DNA” value was no more than 0.2.

For RRAG, the “one-hybrid fitness for binding parS DNA” value stood at 0.738.

Turning to ESIC, the “one-hybrid fitness for binding parS DNA” value is no more than 0.2.

With VWQC, the “one-hybrid fitness for binding parS DNA” value is no more than 0.2.

Turning to MAHE, the “one-hybrid fitness for binding parS DNA” value is no more than 0.2.

For INRC, the “one-hybrid fitness for binding parS DNA” value is no more than 0.2.

As to QRRW, the “one-hybrid fitness for binding parS DNA” value was no more than 0.2.

Turning to AERF, the “one-hybrid fitness for binding parS DNA” value is no more than 0.2.

For TTPQ, the “one-hybrid fitness for binding parS DNA” value was no more than 0.2.

On to LYCH, for which the “one-hybrid fitness for binding parS DNA” value was no more than 0.2.

For the variant NRDS, the “one-hybrid fitness for binding parS DNA” value was no more than 0.2.

As for GYGR, the “one-hybrid fitness for binding parS DNA” value is no more than 0.2.

For HPSV, the “one-hybrid fitness for binding parS DNA” value is no more than 0.2.

As for QNIR, the “one-hybrid fitness for binding parS DNA” value is no more than 0.2.

Turning to CKPI, the “one-hybrid fitness for binding parS DNA” value is no more than 0.2.

Turning to KNGG, the “one-hybrid fitness for binding parS DNA” value is no more than 0.2.

Turning to MTRR, the “one-hybrid fitness for binding parS DNA” value was no more than 0.2.

As to KHSV, the “one-hybrid fitness for binding parS DNA” value was no more than 0.2.

With RAPH, the “one-hybrid fitness for binding parS DNA” value was no more than 0.2.

For SGLG, the “one-hybrid fitness for binding parS DNA” value was no more than 0.2.

Turning to RKYD, the “one-hybrid fitness for binding parS DNA” value was no more than 0.2.

Turning to RKRI, the “one-hybrid fitness for binding parS DNA” value was no more than 0.2.

In the case of HTGG, the “one-hybrid fitness for binding parS DNA” value is no more than 0.2.

Take PPKG: the “one-hybrid fitness for binding parS DNA” value is no more than 0.2.

DGQV: the “one-hybrid fitness for binding parS DNA” value was no more than 0.2.

KPLT: the “one-hybrid fitness for binding parS DNA” value is no more than 0.2.

In the case of ANVR, the “one-hybrid fitness for binding parS DNA” value is no more than 0.2.

For QQQN, the “one-hybrid fitness for binding parS DNA” value is no more than 0.2.

With GWHG, the “one-hybrid fitness for binding parS DNA” value is no more than 0.2.

As for GYCS, the “one-hybrid fitness for binding parS DNA” value is no more than 0.2.

As for YKRV, the “one-hybrid fitness for binding parS DNA” value is no more than 0.2.

KVQR: the “one-hybrid fitness for binding parS DNA” value was no more than 0.2.

Consider LCQT, for which the “one-hybrid fitness for binding parS DNA” value was no more than 0.2.

Take FAPW: the “one-hybrid fitness for binding parS DNA” value is no more than 0.2.

As to SMCR, the “one-hybrid fitness for binding parS DNA” value was no more than 0.2.

THLA: the “one-hybrid fitness for binding parS DNA” value is no more than 0.2.

As to GNYT, the “one-hybrid fitness for binding parS DNA” value is no more than 0.2.

For the variant TTSC, the “one-hybrid fitness for binding parS DNA” value was no more than 0.2.

Take PALT: the “one-hybrid fitness for binding parS DNA” value is no more than 0.2.

Turning to IFVS, the “one-hybrid fitness for binding parS DNA” value was no more than 0.2.

In the case of RRYM, the “one-hybrid fitness for binding parS DNA” value stood at 0.206.

As for RDPV, the “one-hybrid fitness for binding parS DNA” value is no more than 0.2.

For SAQS, the “one-hybrid fitness for binding parS DNA” value is no more than 0.2.

For RGDP, the “one-hybrid fitness for binding parS DNA” value was no more than 0.2.

On to FHFS, for which the “one-hybrid fitness for binding parS DNA” value was no more than 0.2.

Take WYFL: the “one-hybrid fitness for binding parS DNA” value was no more than 0.2.

Consider LWQG, for which the “one-hybrid fitness for binding parS DNA” value was no more than 0.2.

On to DEKS, for which the “one-hybrid fitness for binding parS DNA” value was no more than 0.2.

As for DKMS, the “one-hybrid fitness for binding parS DNA” value was no more than 0.2.

Consider AVPS, for which the “one-hybrid fitness for binding parS DNA” value was no more than 0.2.

As to SHDT, the “one-hybrid fitness for binding parS DNA” value is no more than 0.2.

Take SGLF: the “one-hybrid fitness for binding parS DNA” value was no more than 0.2.

Regarding SKLY, the “one-hybrid fitness for binding parS DNA” value was no more than 0.2.

For ADNY, the “one-hybrid fitness for binding parS DNA” value was no more than 0.2.

Take RCWL: the “one-hybrid fitness for binding parS DNA” value turned out to be 0.209.

Take LLID: the “one-hybrid fitness for binding parS DNA” value is no more than 0.2.

As to AGEG, the “one-hybrid fitness for binding parS DNA” value is no more than 0.2.

On to DRRH, for which the “one-hybrid fitness for binding parS DNA” value is no more than 0.2.

In the case of PHIH, the “one-hybrid fitness for binding parS DNA” value was no more than 0.2.

For TPSG, the “one-hybrid fitness for binding parS DNA” value was no more than 0.2.

With GHVR, the “one-hybrid fitness for binding parS DNA” value was no more than 0.2.
